From PubChem BioAssay (NCATS)
Inconclusive means that the source gave no clear call. Such entries were picked first, then a sample of the others. Potencies of inconclusive entries are doubtful fits and often do not repeat. Active and inactive are the calls of the source. Unless noted, the call rests on the fitted dose curve; in most records, active means well fitted inhibition curve with a large enough effect; inconclusive means small, poorly fitted or top-dose-only effect, or another doubt; inactive means no such curve, though single readings can be large or run the other way.

Biological target: 3',5'-cyclic-AMP phosphodiesterase 4B (Homo sapiens) (UniProt Q07343)
Sequence of UniProt Q07343 (Q07343 whole entry, looked up): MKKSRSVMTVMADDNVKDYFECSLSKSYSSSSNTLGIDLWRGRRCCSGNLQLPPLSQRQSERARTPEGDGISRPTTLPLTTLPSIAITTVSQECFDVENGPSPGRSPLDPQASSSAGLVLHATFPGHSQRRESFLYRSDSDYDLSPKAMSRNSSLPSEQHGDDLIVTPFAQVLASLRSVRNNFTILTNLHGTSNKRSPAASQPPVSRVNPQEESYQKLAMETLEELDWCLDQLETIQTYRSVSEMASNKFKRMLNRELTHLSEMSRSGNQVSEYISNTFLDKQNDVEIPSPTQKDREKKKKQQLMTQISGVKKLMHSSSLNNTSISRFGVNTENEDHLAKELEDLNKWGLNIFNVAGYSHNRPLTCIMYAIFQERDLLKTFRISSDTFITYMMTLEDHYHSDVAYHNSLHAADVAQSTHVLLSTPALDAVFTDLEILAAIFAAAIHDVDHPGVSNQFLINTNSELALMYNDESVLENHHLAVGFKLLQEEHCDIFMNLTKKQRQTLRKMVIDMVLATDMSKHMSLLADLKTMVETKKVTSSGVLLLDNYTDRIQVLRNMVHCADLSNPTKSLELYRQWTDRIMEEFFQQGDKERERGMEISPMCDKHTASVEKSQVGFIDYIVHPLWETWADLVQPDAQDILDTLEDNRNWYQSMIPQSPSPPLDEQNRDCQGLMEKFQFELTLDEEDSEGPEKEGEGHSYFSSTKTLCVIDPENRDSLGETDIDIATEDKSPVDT
Assay: qHTS Assay for Inhibitors of PDE-IV (AID 607; active means well fitted activation curve with a large enough effect in the main read-out, with a control signal flat, not every such curve was filed as active; inconclusive means small, poorly fitted or top-dose-only effect, or effect the other way, or a change in a side signal)
Settings: HEK293 ACTOne CNG channel cells, membrane potential fluorescence
Summary of the method: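 Cell-based read-out of cAMP via a modified cyclic nucleotide-gated channel and membrane potential dye (535/590 nm) in HEK293 cells expressing PDE4 endogenously. Compounds tested up to 22.9 uM final; 100 uM RO 20-1724 reference.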
Potency means the concentration at half of the fitted maximal effect; tags describe the fitted curve by direction and shape.

Row | SMILES | Potency
1 | CCc1c2c(nc3cccc(SC)c13)COC2 | inconclusive: 12.6 µM [activator, single point]
2 | COC(=O)[C@@]1(Cc2ccc(OC)cc2)[C@@H]2[C@@H](CC(=O)[C@H]2CC(=O)C(=O)N2CCCC2)CN1C(=O)c1ccccc1 | inconclusive: 6.31 µM [activator, partial curve]
3 | CN1[C@@H]2CC(OC(=O)[C@H](CO)c3ccccc3)C[C@@H]1[C@H]1O[C@H]12 (some centres not stated) | inconclusive: 19 µM [inhibitor, single point]
4 | CCCCCC1=C2CNC(Cc3ccccc3)(C(=O)OC)C=C2C(C)C1=O (configuration not stated) | inactive
5 | O=C(Nc1cccc(F)c1)N1CCC2(CC1)CCN(C(=O)c1cnccn1)CC2 | inactive
6 | CC(C)NC[C@@H](O)COc1ccc(COCCOC(C)C)cc1 | inactive
7 | COC(=O)[C@@]1(Cc2ccc(OC)cc2)[C@H]2c3cc(C(=O)N(C)C)n(Cc4ccc(C)o4)c3C[C@H]2CN1C(=O)c1ccccc1 | inconclusive: 5.01 µM [rising, partial curve]

System: not listed separately
Assay: qHTS Assay for the Inhibitors of L3MBTL1: Hit Validationin AlphaScreen Counterscreen (AID 602224)
Settings: signal inhibition; series mostly up to 57.1 µM
Summary of the method: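 Bead-only proximity control lacking target protein. Final 1 nM b-His6 with 10 ug/mL streptavidin donor and 10 ug/mL nickel chelate acceptor beads; 15 min compound exposure, then 30 min dark RT, then AlphaScreen read.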

Row | SMILES | Potency
8 | O=C(O)CCCN1C(=O)/C(=C\c2ccc(-c3nc4ccccc4s3)o2)SC1=S | inconclusive: 21.2 µM [inhibitor, partial curve, poor fit]
9 | COc1ccc2nc(-n3c(O)c(C4=c5ccccc5=NC4=O)[nH]c3=S)sc2c1 | inconclusive: 7.52 µM [inhibitor, partial curve]
10 | COc1ccc(-n2cccc2/C=C2\C(=N)N3N=C(c4ccco4)SC3=NC2=O)cc1 | inconclusive: 11.9 µM [inhibitor, partial curve, poor fit]
11 | Cc1cc(C(=O)COC(=O)c2cc(Cl)c(O)c(Cl)c2)c(C)n1C | inconclusive: 26.7 µM [inhibitor, single point]
12 | Cc1c(N2C(=O)c3ccc4c5c(ccc(c35)C2=O)CC4)c(=O)n(-c2ccccc2)n1C | inactive
13 | Cc1ccc(/C=C2\SC(N3CCN(C(c4ccccc4)c4ccccc4)CC3)=NC2=O)o1 | inactive
14 | CC(=O)Oc1ccc2c(=O)c(Oc3ccccc3)coc2c1OC(C)=O | inactive
15 | COC(=O)\C(C(C)=O)=C(/C=C/C=C/C=C/N(C)C)N(C)C | inconclusive: 21.2 µM [inhibitor, single point]
16 | O=C(O)c1cc(Cl)c2c(c1)[C@@H]1C=CC[C@@H]1[C@H](c1ccc(S(=O)(=O)N3CCOCC3)cc1)N2 | inconclusive: 37.7 µM [inhibitor, partial curve, poor fit]
17 | COCCCNC(=O)/C(C#N)=C/c1ccc(OCC(=O)O)c(OC)c1 | inconclusive: 23.8 µM [inhibitor, single point]
18 | O=c1c2ccccc2nc2n1CCC2 | inconclusive: 37.7 µM [inhibitor, partial curve, poor fit]
19 | COc1ccc(Sc2ccc(/C=C3\C(=O)NN(c4ccccc4)C3=O)o2)cc1 | inconclusive: 21.2 µM [inhibitor, single point]
20 | O=C(COC(=O)C1CCN(S(=O)(=O)c2cccs2)CC1)c1cc2ccccc2o1 | inactive
21 | Cc1nn(CCc2nc(-c3ccco3)cs2)c2[nH]c(=O)cc(C(F)(F)F)c12 | inactive
22 | COc1ccc(Cc2nnc(NC(=O)Cc3cccs3)s2)cc1 | inconclusive: 33.6 µM [inhibitor, single point]
23 | CC(=O)c1ccccc1Oc1cc(NN2CCCCC2)c([N+](=O)[O-])cc1[N+](=O)[O-] | inconclusive: 23.8 µM [inhibitor, single point]
24 | O=C(O)c1cc(C(=O)O)cc(-c2ccc(/C=c3/sc4nc5ccccc5n4c3=O)o2)c1 | inactive
25 | COc1cnc(-c2ccccn2)nc1Oc1ccccc1 | inactive
26 | C=CCn1c(SCC(=O)c2ccc(O)c(O)c2)nnc1-c1cccnc1 | inconclusive: 37.7 µM [inhibitor, single point]
27 | Cc1cccc(NC(=O)/C(=C\c2ccc([N+](=O)[O-])o2)NC(=O)c2ccc(Cl)cc2)c1 | inactive
28 | CCOc1ccc(OCCCC(=O)N2CCN(S(=O)(=O)c3ccc(Cl)cc3)CC2)cc1 | inactive
29 | CCCCN(C(=O)c1cccc(-n2cccc2)c1)c1c(N)n(Cc2ccccc2)c(=O)[nH]c1=O | inactive
30 | O=C1CCCC(O)=C1Sc1ccccc1C(=O)O | inconclusive: 26.7 µM [inhibitor, single point]

Biological target: DNA polymerase eta (Homo sapiens) (UniProt Q9Y253)
Sequence of UniProt Q9Y253 (Q9Y253 whole entry, looked up): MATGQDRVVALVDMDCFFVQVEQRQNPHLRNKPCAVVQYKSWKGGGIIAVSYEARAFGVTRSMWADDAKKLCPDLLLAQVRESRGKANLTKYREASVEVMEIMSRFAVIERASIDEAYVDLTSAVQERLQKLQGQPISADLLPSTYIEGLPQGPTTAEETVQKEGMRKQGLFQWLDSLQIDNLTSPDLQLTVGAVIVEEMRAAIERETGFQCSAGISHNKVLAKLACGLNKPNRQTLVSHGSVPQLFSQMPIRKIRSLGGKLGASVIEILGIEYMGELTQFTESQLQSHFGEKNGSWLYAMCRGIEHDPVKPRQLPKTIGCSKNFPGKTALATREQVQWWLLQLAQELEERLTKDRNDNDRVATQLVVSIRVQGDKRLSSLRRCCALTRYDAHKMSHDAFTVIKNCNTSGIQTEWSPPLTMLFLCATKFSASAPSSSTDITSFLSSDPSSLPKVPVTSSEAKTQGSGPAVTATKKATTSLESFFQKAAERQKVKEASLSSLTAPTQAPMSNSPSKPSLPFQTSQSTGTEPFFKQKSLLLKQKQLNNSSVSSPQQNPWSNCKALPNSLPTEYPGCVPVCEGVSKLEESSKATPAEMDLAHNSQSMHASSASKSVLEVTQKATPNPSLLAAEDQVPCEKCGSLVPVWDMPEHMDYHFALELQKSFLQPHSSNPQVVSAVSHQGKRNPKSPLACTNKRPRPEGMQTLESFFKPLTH
Assay: qHTS for Inhibitors of Polymerase Eta: Confirmatory Assay for Cherry-picked Compounds (AID 720502)
Settings: Pol eta primer extension, TAMRA/BHQ fluorescence, 10 min
Summary of the method: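 The reaction starts with 50 nM final labeled DNA substrate added to Pol eta (10 nM) that had sat with compound for 15 min. TAMRA emission at 598 nm is read at 0 and 10 min.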

Row | SMILES | Potency
31 | O=C(O)CCCN1C(=O)/C(=C\c2ccc(-c3nc4ccccc4s3)o2)SC1=S | active: 33.8 µM
32 | COc1ccc2nc(-n3c(O)c(C4=c5ccccc5=NC4=O)[nH]c3=S)sc2c1 | active: 26.9 µM
33 | Cc1cc(C(=O)COC(=O)c2cc(Cl)c(O)c(Cl)c2)c(C)n1C | inconclusive: 84.9 µM [inhibitor, single point]
34 | CC(=O)Oc1ccc2c(=O)c(Oc3ccccc3)coc2c1OC(C)=O | inconclusive: 84.9 µM [inhibitor, single point]
35 | COc1ccc(Sc2ccc(/C=C3\C(=O)NN(c4ccccc4)C3=O)o2)cc1 | inconclusive: 95.3 µM [inhibitor, single point]
36 | Cc1cccc(NC(=O)/C(=C\c2ccc([N+](=O)[O-])o2)NC(=O)c2ccc(Cl)cc2)c1 | inconclusive: 84.9 µM [inhibitor, single point]
37 | O=C1CCCC(O)=C1Sc1ccccc1C(=O)O | active: 60.1 µM
